Reference: PubChem BioAssay AID463173 (ICCB-Longwood Screening Facility, Harvard Medical School, 2010)
Out of some 52,000 compounds screened, about 1,700 (3.3%) were called active. No stated cut-off is given here; in the data, active means survival mostly below about 52% (no sharp cut-off); inactive means mostly above about 56%. This is one part of the list.

tested on: Wild type; experiment: S. aureus survival, RN4220 and DeltatarO strains – OD600, teichoic acid synthesis inhibitors, primary screen (AID 463173); details: S. aureus RN4220 wild type/DeltatarO growth, OD600, 18 h, stronger effect = lower value, screened at 18.75 µg/mL (by protocol)

| SMILES | survival |
| --- | --- |
| Cc1cc(C)n(-c2nc(N(c3ccccc3)c3ccccc3)nc(-n3nc(C)cc3C)n2)n1 | inactive: 105% |
| CC(C)c1ccc(NC(=O)CSC2=Nc3ccccc3C3=NC(CCC(=O)NC4CCCCC4)C(=O)N23)cc1 (centres undefined) | inactive: 78% |
| Cc1cccc(Nc2ncnc3onc(-c4ccc(Cl)cc4)c23)c1C | inactive: 121% |
| Cc1cc(F)ccc1NC(=O)C(c1ccccc1)N1Cc2ccccc2C1=O (centres undefined) | inactive: 87% |
| COC(=O)c1ccc([C@@H]2Nc3c(OC)ccc(C)c3[C@@H]3C=CC[C@@H]32)cc1 | inactive: 77% |
| Nc1c(C(=O)Nc2ccc(F)cc2)sc2nc(-c3cccs3)cc(C(F)(F)F)c12 | inactive: 69% |
| COc1ccc(C(=O)Nc2cccc(C(=O)OCc3cc(=O)n4nc(C5CC5)sc4n3)c2)cc1 | inactive: 111% |
| Cc1ccc2oc3c(c(=O)c2c1)C(c1ccc(O)cc1)N(CCCN(C)C)C3=O (centres undefined) | inactive: 144% |
| Cc1ccc(-n2c(=O)c3cccnc3n2CC(=O)NCc2ccc(Cl)cc2)cc1 | inactive: 69% |
| CC1N=C2c3ccccc3N=C(SCC(=O)NCCc3ccc(Cl)cc3)N2C1=O (centres undefined) | inactive: 69% |
| CCn1c2ccccc2c2cc(CN3CCN(Cc4ccc(Br)cc4)CC3)ccc21 | active: 3% |
| Cc1ccccc1NC(=O)CSc1nccc(=O)[nH]1 | inactive: 96% |
| O=C(CCS(=O)(=O)c1cc2c(cc1Cl)NC(=O)CO2)NCc1ccc(Cl)cc1 | inactive: 88% |
| O=c1cc(-c2ccccc2)c2ccc3c(c2o1)CN(Cc1cccc(Cl)c1)CO3 | inactive: 66% |
| COc1ccc2[nH]cc(CCN=C(NC(=O)c3ccccc3F)Nc3nc(C)cc(C)n3)c2c1 | inactive: 96% |
| CCOc1ccc(CC(=O)Nc2cccc(-c3nc4cccnc4s3)c2C)cc1 | inactive: 95% |
| Cc1ccccc1NC(=O)Cn1c(=O)n(CCCC(=O)NCc2ccc3c(c2)OCO3)c(=O)c2ccccc21 | inactive: 91% |
| NCCSC1CC(=O)N(c2ccc(Cl)cc2)C1=O (centres undefined) | inactive: 105% |
| C=C(C)CSc1nc2sc3c(c2c(=O)n1Cc1ccccc1)CC(C)(CC)OC3 (centres undefined) | inactive: 39% |
| Cc1c(C(=O)Nc2ccccc2Br)oc2ccc(S(=O)(=O)N3CCCCCC3)cc12 | inactive: 83% |
| Cc1ccc(-c2cn3cccnc3n2)cc1NC(=O)C(C)(C)Oc1ccc(Cl)cc1 | inactive: 80% |
| COc1ccc(Cl)cc1NC(=O)c1c(NCc2ccc(C)o2)sc2c1CCC(C)C2 (centres undefined) | inactive: 71% |
| COc1cccc(NCc2cccn2-c2nnc(N3CCC(C)CC3)s2)c1 | inactive: 131% |

| SMILES | survival |
| --- | --- |
| CCC(C)NC(=O)CN1C(=O)c2cccnc2Sc2ccccc21 (centres undefined) | inactive: 112% |
| COc1ccc(NC(=O)C2CCC(CNS(=O)(=O)c3cccc4nsnc34)CC2)cc1OC (centres undefined) | inactive: 87% |
| CCCOC(=O)c1cccc(Nc2nc(CCC)cc(=O)[nH]2)c1 | inactive: 63% |
| Cc1ccc(CN2C(=O)C(O)(c3c(C)[nH]c4ccccc34)c3ccccc32)cc1 (centres undefined) | inactive: 101% |
| COC(=O)c1cc2oc(C)cc2n1Cc1ccccc1Cl | active: -2% |
| Cc1nc2cc(-c3ccccc3)nn2c(C)c1CCC(=O)N1CCN(c2ccc(F)cc2)CC1 | inactive: 59% |
| COCCNC(=O)CCCn1c(SCC(=O)Nc2ccc(F)cc2)nc2c(sc3ccccc32)c1=O | inactive: 103% |
| CCOC(=O)Cn1c(=N)n(Cc2ccc(C(C)(C)C)cc2)c2ccccc21 | inactive: 95% |
| COc1ccc(C(=O)n2nc(N)c3cc4ccc(C)cc4nc32)cc1OC | inactive: 92% |
| CC1CCN(C(=O)c2c(NC(=O)c3ccccc3Cl)sc3c2CCC(C(C)(C)C)C3)CC1 (centres undefined) | active: 2% |
| COc1ccccc1C1NC(=O)c2n[nH]c(-c3cccs3)c21 (centres undefined) | inactive: 70% |
| Cc1cc(C)cc(-n2ccnc2SCC(=O)Nc2cccc3ccccc23)c1 | inactive: 73% |
| COc1cc(C2CC(=O)N(Cc3cccc(F)c3)c3ccccc3S2)cc(OC)c1OC (centres undefined) | inactive: 83% |
| Cc1cc2nc(-c3ccc(OCc4ccccc4C)cc3)cc(C(F)(F)F)n2n1 | inactive: 27% |
| COc1ccc(N2C(=O)NC(NS(=O)(=O)c3ccc(Cl)cc3)(C(F)(F)F)C2=O)cc1 (centres undefined) | inactive: 151% |
| Cc1ccccc1-c1nc(CN2CCCC(C(=O)NCc3ccc(Cl)cc3)C2)c(C)o1 (centres undefined) | inactive: 68% |
| CNC(=O)C1CCC(Cn2c(=O)c3sccc3n(Cc3cc(C)ccc3C)c2=O)CC1 (centres undefined) | inactive: 60% |
| COc1ccc([N+](=O)[O-])cc1NC(c1nnc(-c2ccccc2)o1)c1ccccc1F (centres undefined) | inactive: 84% |
| CCc1ccc(S(=O)(=O)c2cn(CC(=O)Nc3ccc(F)c(Cl)c3)c3ccccc3c2=O)cc1 | inactive: 56% |
| CCN(C(=O)Cn1c(C(=O)OC)cc2sc(Cl)cc21)c1cccc(C)c1 | inactive: 92% |
| COc1ccc(C2C(=O)N(C3CCCCC3)CC(=O)N2CCc2ccc(C)cc2)cc1OC (centres undefined) | inactive: 82% |
| CSc1nc(NCCOC(C)=O)c(C#N)c(-c2ccc(C(C)(C)C)cc2)n1 | inactive: 88% |
| Cc1ccc2nc(CN3CCN(C(=O)Nc4ccc(F)cc4)CC3)oc2c1 | inactive: 87% |

| SMILES | survival |
| --- | --- |
| O=C(COc1ccccc1F)Nc1ccc2nc(SCC(=O)N3CCc4ccccc43)sc2c1 | inactive: 82% |
| O=S(=O)(c1ccc2ccccc2c1)N1CCCCCC1 | inactive: 112% |
| N/C(=N\OC(=O)c1ccccc1)c1cccnc1 | inactive: 109% |
| COc1ccc(NC(=O)CCc2c(C)nc3c(c2C)c(=O)n(C)c(=O)n3C)c(OC)c1 | inactive: 76% |
| CCc1ccccc1NC(=O)Cn1nc2c3cc(F)ccc3n(Cc3cccc(C)c3)cc-2c1=O | inactive: 71% |
| CCOC(=O)c1c(NC(=O)c2cc(-c3ccccc3OC)on2)sc(C)c1C | inactive: 86% |
| Cc1cc(NC(=O)C2CCN(S(=O)(=O)c3c(C)noc3C)CC2)ccc1Br | inactive: 80% |
| Cc1cc(C)c2nc(N(Cc3cccnc3)C(=O)CCS(=O)(=O)c3ccccc3)sc2c1 | inactive: 59% |
| CC1=C(C(=O)Nc2cccnc2)C(c2ccc(F)cc2)n2nc(-c3cccc(C)c3)nc2N1 (centres undefined) | inactive: 63% |
| COc1ccc(Nc2nc(C(=O)NCc3ccco3)cs2)cc1 | inactive: 127% |
| CCOc1ccc(-c2cn3c(n2)sc2cc(C(=O)NCCCN4CCCCCC4)ccc23)cc1 | active: -1% |
| CCc1ccc2oc(C(=O)NCC(c3ccc(OC)cc3)N3CCCCC3)c(C)c2c1 (centres undefined) | inactive: 87% |
| COC1(OC)c2nonc2C(OC)(OC)c2nonc21 | inactive: 116% |
| NC(=O)CSc1nnc(-c2ccc(S(=O)(=O)N3CCCC3)cc2)o1 | inactive: 108% |
| COc1ccccc1C(=O)Nc1ccc(NC(=O)c2ccccc2)nc1 | inactive: 101% |
| COc1ccc(-c2nc3nc(C)cc(C)n3c2Nc2c(C)cccc2C)cc1 | inactive: 60% |
| CCc1c(C)nc(SCC(=O)Nc2ccc3c(c2)OCCO3)[nH]c1=O | inactive: 117% |
| COc1ccccc1CNC(=O)C1(c2cccs2)CCOCC1 | inactive: 70% |
| N#Cc1c[nH]n2c(NC3CCCCC3)c(-c3ccc(F)cc3)nc12 | inactive: 77% |
| CCc1ccc(OCC(=O)Nc2ccc3c(c2)c2ccccc2n3CC)cc1 | inactive: 69% |
| Cc1cccc(-n2ccnc2SCC(=O)Nc2cccc3ccccc23)c1 | inactive: 80% |
| CCc1ccc2[nH]cc(S(=O)(=O)c3ccc(C(C)C)cc3)c(=O)c2c1 | inactive: 72% |
| Cc1cc(C)cc(OCCSc2nc3ccc(NC(=O)c4ccc5c(c4)OCO5)cc3s2)c1 | inactive: 82% |

| SMILES | survival |
| --- | --- |
| O=C(COc1ccccc1Cl)Nc1ccc(OCc2cc(=O)n3ccsc3n2)cc1 | inactive: 95% |
| Oc1ccccc1-c1nc(-c2cccs2)c(-c2cccs2)[nH]1 | active: -11% |
| COC(=O)c1ccccc1NC(=O)Cn1cnc2sc(C)c(S(=O)(=O)N3CCC(C)CC3)c2c1=O | inactive: 73% |
| O=C(O)c1cccc(N(CCO)CCO)c1 | inactive: 115% |
| CCOc1ccc(C2C(=O)N(C3CCCCCC3)CC(=O)N2Cc2ccccc2)cc1OC (centres undefined) | inactive: 75% |
| COc1ccc(NC(=O)/C=C\C(=O)N(c2ccc(C(C)C)cc2)C(C(=O)NCc2ccco2)c2ccc(C)cc2)cc1 (centres undefined) | inactive: 76% |
| Cc1nc2ccccn2c(=O)c1NC(=O)c1cccc(F)c1 | inactive: 73% |
| COc1cc(NC(=O)C(F)(F)F)c(OC)cc1Br | inactive: 120% |
| CCOC(=O)c1cccc(NC(=O)c2ncoc2-c2ccco2)c1 | inactive: 135% |
| Cc1ccc(NC(=O)C2(C)Cc3ccccc3C(=O)O2)c(C)c1 (centres undefined) | inactive: 108% |
| COc1ccc(CCNC(=O)c2ccc3c(c2)sc2nc(-c4ccccc4)cn23)cc1OC | inactive: 69% |
| Cc1ccccc1N(C)S(=O)(=O)c1nnc(NC(=O)c2ccco2)s1 | inactive: 94% |
| CCOC(=O)c1cc(-c2ccc(OC)cc2)n(CCC(=O)NCCc2ccccc2)c1C | inactive: 88% |
| COc1cccc(C(=O)NCCc2csc3nc(-c4ccccc4F)nn23)c1OC | inactive: 70% |
| Cc1ccc(CNC(=O)Cn2c(SCC(=O)Nc3ccc(F)cc3)nc3ccccc32)cc1 | inactive: 131% |
| Cc1cc(OCC(=O)NCCc2nc3ccccc3[nH]2)cc(C)c1Cl | inactive: 65% |
| N#C/C(=C\c1ccc(-c2ccccc2)o1)C(=O)Nc1ccccc1 | inactive: 115% |
| COc1cccc(C2NC(C(=O)O)Cc3c2[nH]c2ccccc32)c1 (centres undefined) | inactive: 118% |
| Cc1cc(C)c(S(=O)(=O)NCCS(=O)(=O)N2CCN(c3ccccc3)CC2)c(C)c1 | inactive: 78% |
| O=S(=O)(c1ccccc1)c1nc(-c2ccccc2Cl)oc1N1CCCCCC1 | active: 14% |
